Experimental data as given in the RNAGym collection of RNA variant scans (doi:10.1073/pnas.2313332121).
Variants at the background level are over-represented here.

B1: TPR 5TU (parent)
chain: GGAUCUUCUCGAUCUAACAAAAAAGACAAAUCUGCCACAAAGCUUGAGAGCAUCUUCGGAUGCAGAGGCGGCAGCCUUCGGUGGCGCGAUAGCGCCAACGUUCUCAACUAUGACACGCAAAACGCGUGCUCCGUUGAAUGGAGUUUAUCAUG

Variants of: B1
Test: polymerase ribozyme fitness, log enrichment relative to wild type (log ratio); higher = more active; in vitro selection for triplet polymerase activity
Procedure, shortened: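 Each subunit of a heterodimeric triplet polymerase ribozyme was represented by a PCR-built, transcribed mutant library that underwent triplicate single-round in vitro selection with frozen incubation at −7 °C. Extended constructs were recovered by gel excision, streptavidin-bead capture and RT-PCR, and Illumina sequencing of input and output libraries kept genotypes with ≥10 input reads and ≥1 read per output. Fitness is the logarithm of genotype enrichment relative to wild-type enrichment, from inverse-variance-weighted replicate averages, with a logarithm base of 2.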

| Variant | polymerase ribozyme fitness (log ratio) |
| --- | --- |
| A24U G88A C95A A110G | ≤ -4.2 |
| A24C G48U G74A U90G C93A | ≤ -4.2 |
| G25A G34U C35G C85G | -4.2 |
| G25C G48C G84A G141U | ≤ -4.2 |
| A24C G48C C51A C57G A73G C95U U104G C105G | ≤ -4.2 |
| G25U C35U A49U G68A G81A U109G C118U G126C | ≤ -4.2 |
| A24C C76U C87A C95U | ≤ -4.2 |
| A24G U45A C54G G58C C93U | ≤ -4.2 |
| A24C A29C G68U C96G | ≤ -4.2 |
| A24G A60C U78G G83A U90A | ≤ -4.2 |
| A24C C87G | ≤ -4.2 |
| A23G C36A G92C G94A U102G A119C | ≤ -4.2 |
| A24U A40G A52C A64G C87A A115C C125G | ≤ -4.2 |
| A23U G34U U44A C114A G136C | ≤ -4.2 |
| G25C A40U U55G C75A C85U C93G U134A A142U | ≤ -4.2 |
| A24G A28C A49C C51G A91U G92A C114G A119G G136C | ≤ -4.2 |
| A24C G34A A60G C85G G136A | ≤ -4.2 |
| A24G A28U U44A G80U | ≤ -4.2 |
| A24U A30C G140A | -3.94 |
| A23G G46C C93U G112A G136U | ≤ -4.2 |
| A24C C36A G86A | ≤ -4.2 |

| Variant | polymerase ribozyme fitness (log ratio) |
| --- | --- |
| A24U C35G A89G U90C C105A A107G | ≤ -4.2 |
| A24C U55A C57U G58U A66G G68C C85A C149G | ≤ -4.2 |
| G25C U53A U61A C95G | -4.18 |
| A23U C35U C93G U101G A138G | ≤ -4.2 |
| A24U U33G C85A C131G U146C | ≤ -4.2 |
| A23U C87G C95U U109A A115C C118G A138C | ≤ -4.2 |
| A24G C85A | -2.96 |
| A24G C85G | ≤ -4.2 |
| A23U C79A G86A U102A | ≤ -4.2 |
| G25C C54A U78G C95U | ≤ -4.2 |
| A24G C79U A91G A107G | ≤ -4.2 |
| A24G A41C G65U C72U C96U C105A C129G | ≤ -4.2 |
| A23U U33G A52U C85U G94U A98U C116U | ≤ -4.2 |
| A23U U55A | -3.85 |
| G25A G46U C75A G80U C85U U90G G128C | ≤ -4.2 |
| A24G U61C U82G C95U | ≤ -4.2 |
| A24G C123U C132U U134A | ≤ -4.2 |
| A24U A26U A40C U44C | ≤ -4.2 |
| G25U A39U U53A C76G U145A | ≤ -4.2 |
| A24C A107U U134C U146C | ≤ -4.2 |
| G25C A29G A66C A107C | ≤ -4.2 |

| Variant | polymerase ribozyme fitness (log ratio) |
| --- | --- |
| A24C G46A G94U C95A A115C | ≤ -4.2 |
| A24G U78A | ≤ -4.2 |
| A24U U53A U55A C95U C99A | ≤ -4.2 |
| A23G C93U | -3.77 |
| A24G C35A G58A C93G C99A | ≤ -4.2 |
| A24U U55A C87U G92U | -3.1 |
| G25C C76U C85U C103U A142C | ≤ -4.2 |
| A24C C54U G86A C87G C123U U130C G143C | ≤ -4.2 |
| A24U C85U | -0.914 |
| G25C G58U A73G C95U G141C | ≤ -4.2 |
| A23U C51G C75A C85G | ≤ -4.2 |
| G25U A39U G50C G86A C93G | ≤ -4.2 |
| A23U A37U A97U U111C | ≤ -4.2 |
| G25C A28U U61A G68C | ≤ -4.2 |
| A23G C54U C93U G128C | ≤ -4.2 |
| G25A C75U C93U C105U U109A | ≤ -4.2 |
| A23U C85U U102A A107U U130G U135G A138C | ≤ -4.2 |
| G25C C54A U101G | ≤ -4.2 |
| G25C U44A C51A G74C U111G U127G G141C | ≤ -4.2 |
| G25C A26U C87G A121U C129G U151A | ≤ -4.2 |
| A24G U31G G46U C72U C79G C95U U101G A142G | ≤ -4.2 |

| Variant | polymerase ribozyme fitness (log ratio) |
| --- | --- |
| A24U C96A U145A | 0.748 |
| A23G C57U C85U A98G U148C | ≤ -4.2 |
| A24G C32A G62A | ≤ -4.2 |
| A23G C76G G81A U90G C93U A98U A122U | ≤ -4.2 |
| G25C C35G C96G A115C C132U | ≤ -4.2 |
| A24G A52C C85U C96U C105U A120U G136A | ≤ -4.2 |
| A24U U45G G74U G94C U102C G133U | ≤ -4.2 |
| A23G G84U U144G | ≤ -4.2 |
| A24G A41C C51G C75A G94U U127C | ≤ -4.2 |
| A23G G50C G84U C85G A150C | -3.98 |
| A24U C36G U56A C57A G71U A91C A106C A110G A138G | ≤ -4.2 |
| G25U A30G A47G C51U G80C A110C | ≤ -4.2 |
| G25C A40C U45G U90A | ≤ -4.2 |
| G25C A47G G48A U53A C85G C114A | ≤ -4.2 |
| A24U C32G U135G G143A | -4.12 |
| A24C U56A G124C | ≤ -4.2 |
| A24U U61A A89U C95G G133C | ≤ -4.2 |
| A24U A30U G68C U148C U151A | ≤ -4.2 |
| A24U C32A | -3.85 |
| A23U A37C A52C G84U A121G G126C | ≤ -4.2 |
| A24U C87U | -0.48 |
